Laboratory results: paper PMC4336329 (PLoS ONE, 2015)
About 2,200 (0.71%) of roughly 310,000 compounds showed an effect of 50% or more. Effects have a minus sign here. The list shows a part of the results.

The compounds below were run against human ether-à-go-go-related gene (hERG) potassium channel (human, UniProt Q12809) (assay: primary screen, population patch clamp on CHO cells stably expressing hERG).
Chain of human ether-à-go-go-related gene (hERG) potassium channel (Q12809 whole entry, looked up): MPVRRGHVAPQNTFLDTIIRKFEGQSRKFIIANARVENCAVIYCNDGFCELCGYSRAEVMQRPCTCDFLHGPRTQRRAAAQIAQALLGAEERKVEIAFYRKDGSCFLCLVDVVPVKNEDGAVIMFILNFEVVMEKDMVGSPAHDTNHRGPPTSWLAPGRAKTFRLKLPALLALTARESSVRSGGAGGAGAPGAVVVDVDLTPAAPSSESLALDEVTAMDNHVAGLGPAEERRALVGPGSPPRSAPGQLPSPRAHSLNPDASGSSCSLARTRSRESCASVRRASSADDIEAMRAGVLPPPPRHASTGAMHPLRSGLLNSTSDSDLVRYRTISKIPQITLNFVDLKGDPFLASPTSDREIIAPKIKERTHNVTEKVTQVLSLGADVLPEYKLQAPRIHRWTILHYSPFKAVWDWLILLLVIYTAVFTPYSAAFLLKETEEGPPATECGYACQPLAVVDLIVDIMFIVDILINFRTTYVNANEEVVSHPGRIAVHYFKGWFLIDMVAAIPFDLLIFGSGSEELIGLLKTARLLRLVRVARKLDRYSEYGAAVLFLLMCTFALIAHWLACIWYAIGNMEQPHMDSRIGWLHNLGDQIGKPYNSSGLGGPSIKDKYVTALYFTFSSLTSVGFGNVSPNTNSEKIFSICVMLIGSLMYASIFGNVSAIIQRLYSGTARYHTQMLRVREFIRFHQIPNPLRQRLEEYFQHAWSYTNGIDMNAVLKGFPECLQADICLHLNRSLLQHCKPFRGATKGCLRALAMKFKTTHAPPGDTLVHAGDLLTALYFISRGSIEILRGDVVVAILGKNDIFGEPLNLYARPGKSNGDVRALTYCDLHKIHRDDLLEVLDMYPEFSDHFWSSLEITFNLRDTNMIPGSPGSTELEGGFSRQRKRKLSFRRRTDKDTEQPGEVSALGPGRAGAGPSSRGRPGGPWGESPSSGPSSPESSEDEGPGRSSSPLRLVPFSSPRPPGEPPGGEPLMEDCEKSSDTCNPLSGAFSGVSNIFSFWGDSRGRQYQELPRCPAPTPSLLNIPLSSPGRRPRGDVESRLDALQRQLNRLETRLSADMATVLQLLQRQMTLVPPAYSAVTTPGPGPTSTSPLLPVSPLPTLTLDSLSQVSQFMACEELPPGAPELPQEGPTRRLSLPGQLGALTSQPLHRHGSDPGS

Row | SMILES | hERG current change (%, negative = inhibition) at 1uM [%]
1 | Cc1ccc(CN2CC(C(=O)Nc3ccc(F)c([N+](=O)[O-])c3)CC2=O)cc1 (centres unmarked) | -1.97
2 | c1ccc(CSc2ccc(-c3ccco3)nn2)cc1 | 4.81
3 | Cc1ccc(/C=N/Nc2cc(C)nc(N3CCOCC3)n2)cc1 | 13.8
4 | COc1cccc(C2=NOC(C(=O)N3CCN(c4ccccc4)CC3)C2)c1OC (centres unmarked) | 12.5
5 | Cc1ccc(CSc2nnc(CCCCCNC(=O)OC(C)(C)C)o2)cc1 | 6.41
6 | CCn1c(=O)cc(OCC(=O)N2CCN(C(=O)c3ccco3)CC2)c2ccccc21 | 7.73
7 | COc1cc(NC(=O)CCn2c(=O)oc3ccccc32)cc(OC)c1OC | 17.7
8 | Cc1ccc(C2CC(=O)C(C=NCCN3CCN(C(=S)Nc4ccccc4)CC3)=C(O)C2)cc1 (centres unmarked) | -0.928
9 | C/C(=N\NC(=O)NC1CCCCC1)c1ccco1 | -5.2
10 | O=C(CCc1c[nH]c2ccccc12)NCCc1ccc(Cl)cc1 | 11.9
11 | Cc1ccc(NC(=O)Cc2nc(-c3c[nH]c(C(=O)N4CCCC4)c3)cs2)c(C)c1 | 2.05
12 | CCOc1ccc(CNC(=O)CCCn2nc(C)c3c(C)n(-c4ccc(C)cc4)nc3c2=O)cc1 | 15.2
13 | COc1ccc2[nH]c(C)c(CCN(Cc3cccs3)C(=S)Nc3cccc(F)c3)c2c1 | 10.6
14 | O=[N+]([O-])c1ccc(N2CCCCCC2)c2nonc12 | 6.54
15 | CC1CC(C)(C)NC(=S)N1CCCC(=O)NCc1ccccc1 (centres unmarked) | 11.7
16 | Cc1cccc(C)c1NC(=O)CCS(=O)(=O)c1cccc2nsnc12 | -1.88
17 | CCCCc1ccc(N/C(N)=N/c2nc(C)cc(C)n2)cc1 | -34
18 | COc1ccc(NC(=O)CSc2nc3ccsc3c(=O)n2Cc2ccccn2)c(OC)c1 | -2.79
19 | Clc1ccccc1-c1ncnc2ccc(Br)cc12 | 6.1
20 | O=C(c1ccccc1)c1cnc[nH]1 | 1.57
21 | COc1ccc(OC)c(S(=O)(=O)NCC(c2ccc(F)cc2)N2CCN(C)CC2)c1 (centres unmarked) | -1.39
22 | CCCC(=O)Oc1ccc(-c2nccc(C(OC)OC)n2)cc1 | 11.5

Row | SMILES | hERG current change (%, negative = inhibition) at 1uM [%]
23 | CCOC(=O)c1sc(NC(=O)CSc2nnc(Cc3ccccc3)o2)c(C#N)c1C | 11.8
24 | O=C(Nc1ccc2nc3n(c(=O)c2c1)CCCC3)c1cc([N+](=O)[O-])ccc1F | 0.255
25 | COc1ccc(-n2nnnc2/C(=C/N(C)C)C(=O)c2ccccc2)cc1 | 9.22
26 | Cc1ccccc1C(=O)N1CCN=C1SCc1ccc([N+](=O)[O-])cc1 | -8.79
27 | CN1C(=O)c2ccccc2C(C(=O)NCC2CCCO2)C1c1c[nH]c2ccccc12 (centres unmarked) | 7.98
28 | CCc1ccc2[nH]c(C(=O)N(C)c3ccc(F)cc3F)cc2c1 | 9.61
29 | Cn1c(=O)[nH]c(=O)c2c1nc(CN1CCN(c3cccc(Cl)c3)CC1)n2CCN1CCOCC1 | -10.8
30 | Clc1ccc(-c2nnc3n2CCCS3)cc1 | 8.12
31 | O=C(Nc1nc2ccccc2s1)C1CCN(S(=O)(=O)c2cc([N+](=O)[O-])ccc2Cl)CC1 | 10.5
32 | O=C(Cc1csc(NC(=O)Nc2ccc(Cl)cc2)n1)NCc1cccnc1 | -1.57
33 | CC(=O)Nc1ccc(S(=O)(=O)Nc2nc3nc(-c4ccccc4)cc(-c4ccccc4)n3n2)cc1 | 17.1
34 | Cc1ccc(OC(C)C(=O)Nc2ccc(C)c(S(=O)(=O)Nc3ccc(C)cc3C)c2)cc1 (centres unmarked) | 9.81
35 | CS(=O)(=O)N(CC(=O)Nc1ccccc1-c1ccccc1)c1ccc(F)cc1 | 12.2
36 | Cc1c(NC(=O)c2ccc(C(=O)Nc3c(C)n(C)n(-c4ccccc4)c3=O)cc2)c(=O)n(-c2ccccc2)n1C | 14.9
37 | CC1=C(C(=O)OCC2CCCO2)C(c2coc3ccc(C)cc3c2=O)C2=C(CCCC2=O)N1 (centres unmarked) | 3.86
38 | Cc1ccccc1CC(=O)N1CCCC(CNC(=O)c2ccc(F)cc2)C1 (centres unmarked) | 11.4
39 | Cc1cc(Br)cc2c(C(=O)NCC3CCCO3)cc(-c3ccccc3)nc12 (centres unmarked) | 12
40 | COC(=O)c1ccc(OCC(O)CN2CCC(C)CC2)cc1 (centres unmarked) | -8.12
41 | CC(C)C(=O)Nc1ccc2c(c1)nc(CCN1CCN(c3ccccn3)CC1)n2C | 6.24
42 | Cl.c1ccc(CCn2nnnc2CN2CCN(C3CCCC3)CC2)cc1 | 2.67
43 | COc1ccc(CCNCc2ccncc2)cc1OC | 14
44 | Cc1ccc(C(=O)OCN2C(=O)c3ccccc3C2=O)o1 | 14.2

Row | SMILES | hERG current change (%, negative = inhibition) at 1uM [%]
45 | Cc1ccc(CNC(=O)COc2ccc(S(=O)(=O)N3CCOCC3)cc2)cc1 | 16.5
46 | CC1(C)CC2(CCO1)OC(=O)CC2C(=O)NCc1ccccc1 (centres unmarked) | -2.59
47 | COc1ccccc1CN1CC(C(=O)NCc2cc(C(C)C)no2)CCC1=O (centres unmarked) | 19.2
48 | CCOP(=O)(CC(C(C)=O)C(O)c1ccccc1)OCC (centres unmarked) | 17.8
49 | COc1ccc(NC(=O)CSc2nccn2Cc2ccco2)cc1 | 14.6
50 | COc1ccc(NC(=O)c2cccs2)cc1O | -2.58
51 | COCCNC(=S)Nc1ccc2nc(N3CCN(C)CC3)cc(C)c2c1 | 9.02
52 | COc1ccc(Cn2c(-c3ccc(C)cc3)c[n+]3ccccc23)cc1.[Br-] | -5.72
53 | CCOC(=O)C1(Cc2cccc(Cl)c2)CCCN(C2CCN(C(C)=O)CC2)C1 (centres unmarked) | 16.4
54 | Cc1ccc2nc(-c3ccncc3)cc(-c3ccccc3)c2c1 | 2.64
55 | Nc1cc(C2CCCC2)nn1-c1ccccc1 | -0.284
56 | O=C(Nc1nnc(C2=COCCO2)o1)c1cccc(Br)c1 | 14.1
57 | COc1ccccc1N=C1SCC(=O)N1Cc1ccco1 | 12
58 | CCOC(=O)CSc1n[nH]c(NC(C)=O)n1 | 6.3
59 | Cc1ccc2nc(Cl)c3cc(C(=O)NCCCN4CCCC4)sc3c2c1 | 10.5
60 | O=S(=O)(N[C@H]1C[C@@H](NS(=O)(=O)OCC(Cl)(Cl)Cl)C2CCCCC21)OCC(Cl)(Cl)Cl (some centres unmarked) | 8.67
61 | CN(C1CCCCC1)S(=O)(=O)c1ccc(NC(=O)Cn2nc(-c3ccc(F)cc3)ccc2=O)cc1 | 3.99
62 | Cc1ccc(C(=O)/C=C/Nc2cccc(O)c2)cc1 | 6.34
63 | COC(=O)c1ccc(CNS(=O)(=O)c2ccc3ccccc3c2)cc1 | 14.9
64 | Cc1cc(C)c2cc3c(N)c(C(=O)N4CCOCC4)sc3nc2c1 | 13.7
65 | O=C(Oc1ccc(/C=N/NC(=O)c2ccco2)cc1)c1ccccc1 | 6.17
66 | O=C(NNC(=O)c1ccccc1OCc1ccccc1)c1ccccc1O | 17.9

Row | SMILES | hERG current change (%, negative = inhibition) at 1uM [%]
67 | CC(=O)N(c1ccc(N(C(C)=O)S(=O)(=O)c2ccccc2)cc1)S(=O)(=O)c1ccccc1 | 9.52
68 | COc1ccc(N=Cc2c[nH][nH]c2=O)cc1 | 12.6
69 | O=[N+]([O-])c1cc(-c2ccc(/C=N/c3nc4ccccn4c3-c3ccco3)o2)ccc1Cl | 3.5
70 | CC(C)(C)C(=O)N1CCN(c2ccc(NC(=O)c3ccco3)cc2)CC1 | 12.4
71 | CSc1nnc(C2CCN(CC(=O)Nc3ccccc3N3CCOCC3)CC2)n1C | -10.2
72 | O=[N+]([O-])c1cc(/C=N\Nc2nc(-c3ccccc3)cs2)ccc1O | 12.5
73 | Cc1ccc(N2C(=O)NC(=O)/C(=C\c3ccc(N4CCOCC4)cc3)C2=O)cc1 | 8.44
74 | O=S(=O)(NCCO)c1cccc2cccnc12 | 3.85
75 | CN(Cc1ccccc1)C(=O)CNC(=O)Cn1cnc2ccccc2c1=O | 0.746
76 | C[C@H](NC(=O)c1nc[nH]c1C(=O)N1CCc2ccccc2C1)c1ccccc1 | 8.52
77 | O=C(OCC(=O)N1CCCc2ccccc21)c1cnc(Cl)c(Cl)c1 | -5.84
78 | CCOc1ccccc1NS(=O)(=O)c1c(C)noc1C | -6.57
79 | CCCCNC(=O)c1nn2c(C(F)(F)F)cc(-c3ccccc3)nc2c1Br | 15.2
80 | NS(=O)(=O)c1ccc(CCNC(=O)Cc2c[nH]c3ccccc23)cc1 | 14.2
81 | COc1cc(NS(=O)(=O)c2ccc(NC(=O)c3ccco3)cc2)nc(OC)n1 | 11.5
82 | CC(=O)Nc1ccc(Nc2nc(-c3sc(NC(C)=O)nc3C)cs2)cc1 | 20.3
83 | CN(CCCN1CCOCC1)C(=O)c1cc(COc2cccc(C(F)(F)F)c2)on1 | -12.3
84 | Cc1cccc2cc(CN(Cc3ccco3)C(c3nnnn3CCc3ccccc3)C(C)C)c(=O)[nH]c12 (centres unmarked) | 10.9
85 | Cc1cccc(NC(=S)NCCSc2ccc(Cl)cc2)c1 | -0.788
86 | COc1ccc(-n2c(Cc3cccn3C)nnc2SCC(=O)Nc2ccccc2OC)cc1 | -4.23
